# Laboratory results published in PubChem BioAssay AID504832 (National Center for Advancing Translational Sciences (NCATS), 2011).
# “And” between values parts separate entries of the source, which are not always exact repeats. Identical values can stand only once. The campaign covered roughly 310,000 compounds. About 18,000 (5.8%) were called active. The shares of active, inactive and inconclusive entries below differ from those in the screen. Calls come from the whole dose curve; as a rule, active = well fitted inhibition curve with a large enough effect; inconclusive = small, poorly fitted or top-dose-only effect, or another doubt; inactive = no such curve, though single readings can be large or run the other way. Potencies of inconclusive entries are left out as doubtful fits.
# Test: Primary qHTS for delayed death inhibitors of the malarial parasite plastid, 48 hour incubation
# Conditions: P. falciparum luciferase growth in erythrocytes; series mostly up to 28.7 µM
# Summary of the method: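 Parasite viability was followed by luminescence of a genomically integrated firefly luciferase. Cultures held 0.1% parasitemia at 2% hematocrit (final), incubated under 5% CO2 at 37 C.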
# % is set by controls: 0 for no effect and ±100 for the full control effect; potency is the fitted concentration of half-maximal effect; tags give direction and shape of the fitted curve.
Compound,Potency,"activity change, negative = inhibition"
Cc1ccc(N(Cc2ccccc2)C(=O)c2cc(S(=O)(=O)N3CCOCC3)ccc2F)cc1,active: 11.7 µM,
CCN(CC(=O)Nc1ccccc1C(F)(F)F)C(=O)c1ccccc1Sc1ccccc1C#N,"inconclusive [inhibitor, partial curve, poor fit]",
Cc1ccc(NC(=O)C2C3C=CC4(O3)C2C(=O)N(CCCN2CCCCC2)C4C(=O)NC2CCCCC2)cc1Cl (configuration not stated),"inconclusive [inhibitor, partial curve]",
C=C1C(C(=O)Nc2ccc(OC)cc2)C1C(=O)Nc1ccc(OC)cc1 (configuration not stated),"inconclusive [inhibitor, single point]",
CCOC(=O)c1ccc(NC(=O)CSc2nc3cccnc3n2C)cc1,"inconclusive [inhibitor, partial curve, poor fit]",
CC(C)c1ccc(CN2CCC(Oc3ccc(C(=O)N4CCCC4)cc3)CC2)cc1,active: 6.57 µM,
COc1ccc(NC(=O)CSc2nc(O)cc(=O)n2-c2ccccc2OC)cc1,"inconclusive [inhibitor, single point]",
Cc1cc(C)cc(NC(=O)COc2ccc(C(=S)N3CCOCC3)cc2)c1,"inconclusive [inhibitor, full curve, poor fit]",
O=C(CSc1nnc(Cn2c(=O)sc3ccccc32)n1-c1ccccc1)Nc1nccs1,"inconclusive [inhibitor, partial curve, poor fit]",
O=C(O)CCCNC(=O)c1cccc(C(=O)NCCCC(=O)O)n1,inactive,
Oc1ccc(/C=N/Nc2nc(-c3cccnc3)nc3ccccc23)c(O)c1,active: 9.28 µM,
CC(C)(C)c1cnnn1-c1ccc(C(=O)CCl)cc1,inactive,
CC1CCCCC12NC(=O)N(Cc1cc(=O)n3ccsc3n1)C2=O (configuration not stated),inactive,
Cc1ccc(C)c2[nH]c(=O)c(C(c3nnnn3C3CCCC3)N3CCOCC3)cc12 (configuration not stated),"inconclusive [inhibitor, partial curve]",
CC(C)[C@H](Nc1nc(-c2ccccc2)nc2c1oc1ccccc12)C(=O)O,"inconclusive [inhibitor, single point]",
COc1ccc(-c2nc3oc4cc(OC)ccc4c(=O)c3c(=O)n2Cc2ccco2)cc1,"inconclusive [inhibitor, partial curve]",
Oc1cccc(Nc2nc(O)c(/C=C3\C=Nc4ccccc43)s2)c1,inactive,
COc1cc(C=C2C(=O)NC(=O)NC2=O)ccc1OCc1ccc([N+](=O)[O-])cc1,inactive,
Cn1nc(C(F)(F)F)c2cc(NC(=O)OCC(C)(C)C)sc21,active: 2.33 µM,
COc1ccccc1NS(=O)(=O)c1ccc(C)c(NS(=O)(=O)c2cc(C(=O)O)cc(C)c2C)c1,inactive,
OCCC1CN(Cc2ccc3nsnc3c2)CCN1CCc1ccccc1 (configuration not stated),inactive,
NS(=O)(=O)c1cccc(NC(=O)CN2CCCc3ccccc32)c1,inactive,
Cc1nnc(NCCN2CCOCC2)[nH]c1=O,inactive,
Cc1ccc(-c2cc(-c3ccc(C)cc3)[n+](-c3ccccc3)c(-c3ccc(C)cc3)c2)cc1,active: 0.294 µM,

Compound,Potency,"activity change, negative = inhibition"
COc1ccc2nc(N/C(N)=N/C(=S)Nc3ccccc3)nc(C)c2c1,"inconclusive [inhibitor, partial curve, poor fit]",
CCC(=O)Nc1cccc(C2=NOC3(C2)C[C@H](C(N)=O)N(C(=O)Cc2ccc([N+](=O)[O-])cc2)C3)c1 (some centres not stated),inactive,
COc1ccc(C2CC(c3ccc(OC)c(OC)c3)=NN2C(=O)c2ccccc2)cc1 (configuration not stated),"inconclusive [inhibitor, partial curve, poor fit]",
O=S(=O)(c1ccc(Cl)cc1)N(Cc1ccccn1)Cc1ccccn1,,inactive: -11% [at 0.00184 µM]
COc1ccc(C(CNC(=O)COc2cc(C)c(Cl)c(C)c2)N2CCCCC2)cc1 (configuration not stated),"inconclusive [inhibitor, partial curve]",
CCOc1cccc(C(=O)N/N=C/c2ccoc2)c1,inactive,
O=C(CCN1C(=O)C2C3C=CC(C3)C2C1=O)N1CCCCC1 (configuration not stated),"inconclusive [inhibitor, full curve]",
CC(C)C(C(=O)NC1=NCCS1)c1ccc(Cl)cc1 (configuration not stated),active: 3.7 µM,
Cc1ccc(-n2ncc3c(N4CCN(c5ccc(F)cc5)CC4)ncnc32)c(C)c1,"inconclusive [inhibitor, partial curve]",
CCOC(=O)/C=C/C(=O)Nc1nccs1,"inconclusive [inhibitor, single point]",
CCOC(=O)c1c(NC(=O)Cc2cccs2)sc(C(=O)N2CCCCC2)c1C,"inconclusive [inhibitor, partial curve, poor fit]",
Cc1ccc(OCC(=O)NNc2c3ccccc3nc3ccccc23)cc1,active: 9.28 µM,
O=C(Nc1ccccc1)NN(C(=O)CCl)c1ccccc1,active: 13.1 µM,
OC[C@H]1OC(O)[C@@H](O)[C@@H](O)[C@@H]1O (some centres not stated),inactive,
Cc1sc2ncnc(Sc3ccccc3C(=O)O)c2c1C,inactive,
CC1Cc2nc(SCC(=O)Nc3ccc4c(c3)OCO4)n(-c3ccc(F)cc3)c(=O)c2S1 (configuration not stated),active: 1.65 µM,
COCCNC(=O)CN(C(=O)Cn1nnc2ccccc21)c1cccc(C)c1C,inactive,
CNC(=S)Nc1ccc2nc(C)c(C)nc2c1,inactive,
CC(C)CCC1CC(CSC(=N)N)OC1=O (configuration not stated),"inconclusive [inhibitor, partial curve, poor fit]",
OCCN1CCN(CCCN2c3ccccc3Sc3ccc(Cl)cc32)CC1,active: 7.21 µM and active: 11.7 µM,
CC1C(=O)N2CCCc3cc(NC(=O)C(=O)NCc4cccnc4)cc1c32 (configuration not stated),"inconclusive [inhibitor, single point]",
O=C1NC2c3ccccc3C(=O)N2c2c1cnn2-c1ccccc1 (configuration not stated),"inconclusive [inhibitor, partial curve, poor fit]",
O=C(N/N=C/c1ccc(N2CCOCC2)o1)c1cccc([N+](=O)[O-])c1,inactive,
